Results on 55 molecules are retold here after PubChem BioAssay AID463173 (ICCB-Longwood Screening Facility, Harvard Medical School, 2010).

Molecules are shown by their SMILES. Screen size: about 52,000 compounds; about 4,300 (8.3%) were called active. Cut-off read from the data, not from the text of the source: active = survival mostly below about 52% (no sharp cut-off); inactive = mostly above about 56%. This is one part of the list.

In the assay the test system is DeltatarO mutant. In words: growth inhibition of S. aureus wild type versus tarO mutant, primary screen, teichoic acid synthesis inhibitors, RN4220, OD600 (AID 463173). The note with it: OD600, 18 h, active compounds read low, screened at 18.75 µg/mL (by protocol).
For the molecule `O=C(CN1C(=O)CC(c2ccc(F)cc2)=Nc2ccccc21)NCc1ccccc1Cl`, the survival is inactive: 78%.

On to `CN(C1CCCCC1)S(=O)(=O)c1ccc2c(c1)c(=O)c(C(=O)NCc1ccc(Cl)cc1)cn2C`, for which the survival is inactive: 71%.

In the case of `COCC(C)NCc1ccccc1C` (stereo not given), the survival is inactive: 92%.

For the molecule `CCN(Cc1ccccc1)C(=O)C(CC(C)C)NS(=O)(=O)c1ccc2c(c1)CCN2C(C)=O` (stereo not given), the survival is inactive: 84%.

Regarding `O=C(c1ccccc1)N1CCCCC1CCN1CCCCC1` (stereo not given), the survival is inactive: 70%.

With `CN(C)c1ccc(Cl)nn1`, the survival was inactive: 103%.

As to `Cc1cccc(N2CCN(C(=O)c3nn(C)c4c3CS(=O)(=O)c3ccccc3-4)CC2C)c1` (stereo not given), the survival is inactive: 71%.

As for `COc1ccccc1CNC(=O)c1c(O)nc2cc(C)ccn2c1=O`, the survival is inactive: 87%.

With `Cc1nc2ccc(S(=O)(=O)NC(C(=O)NCc3ccc(Cl)cc3)C(C)C)cc2s1` (stereo not given), the survival was inactive: 118%.

For the molecule `COc1cc2c(-c3ccccc3Cl)nc3c(c(C)nn3-c3ccccc3)c2cc1OC`, the survival is inactive: 57%.

Regarding `Cc1cccc(C(=O)Nc2ccccc2C(=O)OCc2cc(=O)n3nc(C4CC4)sc3n2)c1`, the survival was inactive: 88%.

Turning to `CCOC(=O)c1c(-c2ccc(OC)c(OC)c2)csc1NC(=O)c1ccc(F)cc1`, the survival is inactive: 77%.

On to `O=C(C1CCN(c2nc3ccccc3[nH]2)CC1)N1CCN(c2cccc(Cl)c2)CC1`, for which the survival was active: 8%.

Consider `COc1cccc(N2C(=O)CSC23C(=O)N(CC(=O)NCc2ccc(C)cc2)c2ccccc23)c1` (stereo not given), for which the survival was inactive: 89%.

For `CSC1=NC2(CCN(C(=O)NC3CCCCC3)CC2)N=C1c1ccc(C(C)(C)C)cc1`, the survival was inactive: 67%.

In the case of `Cc1cc(C)c2oc(C(=O)Nc3c(C(=O)Nc4ccccc4)oc4ccccc34)cc(=O)c2c1`, the survival is active: 51%.

In the case of `CCCCn1cc(S(=O)(=O)c2ccc(Cl)cc2)c(=O)c2cc(F)c(N3CCCCC3)cc21`, the survival is inactive: 82%.

As for `Cc1ccc(OCC(=O)Nc2ccc(S(=O)(=O)N(Cc3ccccc3)c3ccccc3)cc2)cc1`, the survival was inactive: 72%.

As for `Cn1c(SCc2ccc(F)cc2)nc2ccc(C(=O)NCc3ccccc3)cc21`, the survival was inactive: 49%.

With `O=C(CSc1oc(-c2ccco2)nc1S(=O)(=O)c1ccccc1)c1ccc(Cl)cc1`, the survival is inactive: 61%.

For the molecule `CCOc1cccc(C(=O)Nc2ccc(NC(=O)c3ccc(Br)cc3)cc2)c1`, the survival is inactive: 172%.

As to `CCOC(=O)c1ccc(NC(=O)CC2C(=O)N(c3ccccc3)C(=O)N2C2CCCCC2)cc1` (stereo not given), the survival is inactive: 67%.

As to `O=C(CSc1nnc(-c2ccccc2)o1)Oc1ccc(Br)cc1`, the survival was inactive: 76%.

For `CCOC(=O)c1oc2ccc(S(=O)(=O)n3nc(-c4cc(OCC)c(OCC)c(OCC)c4)cc3N)cc2c1C`, the survival was inactive: 65%.

For the molecule `CCN(c1ccc(C)cc1C)S(=O)(=O)c1nnc(NC(=O)c2ccccc2OC)s1`, the survival is inactive: 55%.

With `COc1ccc2nc(Cl)c(CNC3CCCC3)cc2c1`, the survival was inactive: 99%.

For the molecule `COc1cccc(CNCCSc2nnnn2C)c1OCc1ccc(Cl)cc1`, the survival is inactive: 62%.

As for `CCCN(CCC)CCCNC(=O)c1cn(CC)c2ccc(S(=O)(=O)N3CCc4ccccc4C3)cc2c1=O`, the survival was inactive: 91%.

Consider `CCc1ccc(Cn2nnc(C(=O)Nc3ccc(C)cc3)c2N)cc1`, for which the survival is inactive: 133%.

With `CC(C)c1ccc(NC(=O)C2CCCN(S(=O)(=O)c3ccc4[nH]c(=O)ccc4c3)C2)cc1` (stereo not given), the survival is inactive: 92%.

Turning to `COCCNC(=S)N1CCC(NC(C)=O)CC1`, the survival is inactive: 83%.

Consider `CCOC(=O)c1ccc2c(c1)N(CC(=O)Nc1ccc(CC)cc1)C(=O)c1ccccc1S2`, for which the survival is inactive: 67%.

As for `Cc1ccc(Nc2c(-c3ccc(N4CCOCC4)cc3)nc3ncccn23)cc1C`, the survival is inactive: 88%.

As for `COc1cc(NC(=O)Cn2cnc3sc(C)c(S(=O)(=O)N4CCN(C)CC4)c3c2=O)cc(OC)c1OC`, the survival was inactive: 155%.

Take `Cn1c(=O)oc2cc(S(=O)(=O)N3CCCC(C(=O)N4CCN(c5cccc(Cl)c5)CC4)C3)ccc21` (stereo not given): the survival was inactive: 62%.

Take `CC1=C(C(=O)OCC2CCCCC2)C(c2cccc(F)c2F)CC(=O)N1` (stereo not given): the survival was inactive: 95%.

For the molecule `COc1ccc(CNC(=O)CN(c2ccc(OC)cc2)S(=O)(=O)c2c(C)[nH]c(=O)[nH]c2=O)cc1`, the survival is inactive: 81%.

Turning to `O=C(CC1(O)C(=O)N(Cc2ccccc2)c2ccc(Br)cc21)c1ccccc1` (stereo not given), the survival was inactive: 99%.

For `Cc1ccc(-n2c(-c3ccco3)nc3c(cnn3-c3ccc(C)cc3)c2=O)cc1`, the survival is inactive: 81%.

`O=C(Cc1ccccc1F)N1CCC(c2nc3c(nnn3Cc3cccc(Cl)c3)c(=O)[nH]2)CC1`: the survival was active: 44%.

As to `Cc1cc(C)cc(OCCn2c(CCNC(=O)C3CCCCC3)nc3ccccc32)c1`, the survival was inactive: 92%.

Consider `COc1cccc(/C=N/NC(=O)c2cccc(C)c2)c1O`, for which the survival was active: 2%.

For `CCc1ccc(N2CCn3c2nc2c3c(=O)n(CCCc3ccccc3)c(=O)n2C)cc1`, the survival is inactive: 82%.

Take `CCCc1cnc2c(c1SCC(=O)Nc1cccc(C)c1C)c(=O)n(C)c(=O)n2C`: the survival is inactive: 102%.

Turning to `CCOC(=O)c1ccc(NC(=O)c2c(NCc3cc(OC)c(OC)cc3OC)sc3c2CCCC3)cc1`, the survival is inactive: 87%.

As for `COc1ccc(-n2cc(-c3ccccc3)c3c(NCCc4ccc(OC)c(OC)c4)ncnc32)cc1`, the survival was inactive: 116%.

As to `CCN1CCN(c2cc3c(cc2F)c(=O)c(S(=O)(=O)c2cc(C)cc(C)c2)cn3CC)CC1`, the survival was active: -1%.

On to `Cc1cccc(N2CCN(c3ncnc4onc(C)c34)CC2C)c1` (stereo not given), for which the survival was inactive: 77%.

Regarding `CCc1cccc(C)c1NC(=O)c1cn2c3c(ccc(Cl)c3c1=O)OC(C)C2` (stereo not given), the survival was inactive: 122%.

As to `Cc1ccc(-c2nc3ncccc3o2)cc1NC(=O)c1ccc(-c2cccc(Cl)c2C)o1`, the survival was inactive: 56%.

Regarding `Cc1nc(-c2cccc(F)c2)sc1CCNC(=O)C(=O)Nc1ccc2c(c1)OCO2`, the survival was inactive: 90%.

Consider `CCOc1ccc(S(=O)(=O)NCC(c2ccc(N(C)C)cc2)N2CCc3ccccc32)cc1` (stereo not given), for which the survival was inactive: 49%.

Turning to `CCCCN(C)S(=O)(=O)c1cc(-c2cc(C)no2)ccc1C`, the survival was inactive: 84%.

As to `O=C(CC12CC3CC(CC(C3)C1)C2)NCc1ccco1`, the survival was inactive: 90%.

Turning to `COC(=O)CSc1ccc2nnc(CCNS(=O)(=O)c3ccccc3)n2n1`, the survival was inactive: 118%.
